{
  "source": "PubChem BioAssay AID1476",
  "about": "(National Center for Advancing Translational Sciences (NCATS), 2009)",
  "note": "“And” between values parts separate entries of the source, which are not always exact repeats. Equal entries are not always repeated. Screen size: about 200,000 compounds; about 4,500 (2.2%) were called active. Inconclusive results, whose numbers are uncertain, are shown with a selection of clear calls. Calls follow the shape of the dose curve; as a rule, active = well fitted inhibition curve with a large enough effect; inconclusive = small, poorly fitted or top-dose-only effect, or effect the other way; inactive = flat fitted curve, though single readings scatter. Where the call is inconclusive, the potency comes from a doubtful curve fit. Potency is read from the fitted curve at half-maximal effect; tags tell the direction and shape of the fitted curve.",
  "data": [
    {"target": "Cruzipain (Trypanosoma cruzi) (UniProt P25779)", "sequence (P25779 whole entry, looked up)": "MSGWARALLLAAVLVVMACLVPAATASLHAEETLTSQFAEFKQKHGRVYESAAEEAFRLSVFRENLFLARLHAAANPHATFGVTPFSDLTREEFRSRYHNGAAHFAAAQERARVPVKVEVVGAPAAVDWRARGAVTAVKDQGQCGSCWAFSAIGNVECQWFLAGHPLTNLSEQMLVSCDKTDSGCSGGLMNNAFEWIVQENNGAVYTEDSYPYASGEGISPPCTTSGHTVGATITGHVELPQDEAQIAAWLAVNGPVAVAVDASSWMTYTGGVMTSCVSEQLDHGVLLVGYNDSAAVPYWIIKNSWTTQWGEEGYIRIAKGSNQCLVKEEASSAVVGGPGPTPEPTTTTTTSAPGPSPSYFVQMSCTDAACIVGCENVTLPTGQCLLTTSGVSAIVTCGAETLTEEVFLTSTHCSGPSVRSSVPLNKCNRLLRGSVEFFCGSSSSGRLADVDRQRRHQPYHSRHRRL", "assay": "qHTS Assay for Promiscuous and Specific Inhibitors of Cruzain (without detergent); also: nearly all actives have a fitted effect of over 40% in size;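 as to max response, negative = inhibition: plate controls were enzyme without inhibitor for no effect and buffer without enzyme for full effect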", "details": "purified cruzain, Z-FR-AMC fluorescence, no detergent", "summary_of_the_method": "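Purified cruzain at 1.5 nM, pre-incubated 15 min with compound at room temperature in 100 mM sodium acetate pH 5.5, 5 mM DTT, 0.00005% Triton X-100. Reaction started with 2 uM Z-FR-AMC; AMC fluorescence increase over 60 s gives rate.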", "values": [
      {"smiles": "O=C(c1ccc(F)cc1)n1ccc(-c2cnc(-c3ccccc3)s2)n1", "Potency": "active: 6.31 µM"},
      {"smiles": "COc1ccc(C(=O)NCC(c2ccco2)S(=O)(=O)c2ccc(F)cc2)cc1", "note": "(stereo not drawn)", "Potency": "inconclusive: 0.0794 µM [inhibitor, partial curve, poor fit]"},
      {"smiles": "CC(=O)N1CCN(C2c3cccc4cccc(c34)C2NS(=O)(=O)c2ccccc2)CC1", "note": "(stereo not drawn)", "Potency": "inconclusive: 39.8 µM [activator, single point]"},
      {"smiles": "CCCCCCN(C(=O)CCCCCN1C(=O)NC(c2ccc(-c3ccccc3)cc2)C(C(=O)OCc2ccccc2)=C1C)C(C(=O)NCCCC)c1ccc(O)cc1", "note": "(stereo not drawn)", "Potency": "active: 3.16 µM and active: 6.31 µM"},
      {"smiles": "Cn1c(=O)c(C(=O)Nc2ccccn2)c(O)c2ccccc21", "Potency": "inconclusive: 31.6 µM [activator, single point]"},
      {"smiles": "C/C(=N\\NC(=S)NCCc1ccccc1)c1ccc(C#N)cc1", "Potency": "active: 10 µM"},
      {"smiles": "Cc1ccc(C)c(Cn2c(=O)n(CCCCC(=O)NCc3ccc4c(c3)OCO4)c(=O)c3ccccc32)c1", "max response, negative = inhibition": "inactive: -1.91%"},
      {"smiles": "COc1cc2[nH]c(=O)n(CCCC(=O)N3CC=C(c4ccccc4)CC3)c(=O)c2cc1OC", "Potency": "inconclusive: 39.8 µM [activator, single point]"},
      {"smiles": "CCc1nnc(NC(=O)CCC(=O)N2CCN(C3c4ccccc4-c4ccccc43)CC2)s1", "Potency": "inconclusive: 39.8 µM [activator, single point]"},
      {"smiles": "CCOC(=O)c1c(C)[nH]c(C)c1S(=O)(=O)N1CCC(C(=O)Nc2ccc(OCC)cc2)CC1", "Potency": "inconclusive: 25.1 µM [activator, single point]"},
      {"smiles": "CCOc1ccc2[nH]c(=O)c(C(c3nnnn3Cc3ccco3)N3CCCC(C)C3)cc2c1", "note": "(stereo not drawn)", "Potency": "inconclusive: 39.8 µM [activator, single point]"},
      {"smiles": "CCCCC1(C)Nc2ccccc2-c2nc3ccccc3n21", "note": "(stereo not drawn)", "Potency": "inconclusive: 25.1 µM [activator, partial curve]"},
      {"smiles": "CCc1ccccc1NS(=O)(=O)c1ccc2nc(-c3ccccc3)[nH]c2c1", "Potency": "inconclusive: 31.6 µM [inhibitor, single point]"},
      {"smiles": "CCCCOc1ccc(C(=O)NCC(=O)OCC(=O)N2CCN(S(=O)(=O)c3ccc(C)cc3C)CC2)cc1", "Potency": "inconclusive: 20 µM [activator, partial curve]"},
      {"smiles": "c1ccc(C(c2ccccc2)N2CC[C@@]3(CCCNC3)C2)cc1", "max response, negative = inhibition": "inactive: -5.79%"},
      {"smiles": "Nc1cc(OC(=O)c2cccs2)nn1S(=O)(=O)c1ccccc1", "Potency": "inconclusive: 25.1 µM [inhibitor, single point]"},
      {"smiles": "N=C1N=C(N)c2cc3ccccc3cc21", "max response, negative = inhibition": "inactive: -13.7%"},
      {"smiles": "CCn1c(-c2cc(-c3cc(C)ccc3C)nc3ccccc23)n[nH]c1=S", "Potency": "inconclusive: 31.6 µM [inhibitor, single point]"},
      {"smiles": "Cc1cc(C)cc(NC(=O)CSc2oc(-c3ccccc3)nc2S(=O)(=O)c2ccc(Cl)cc2)c1", "max response, negative = inhibition": "inactive: -6.39%"},
      {"smiles": "CCCCn1c(=NC(=O)c2ccc3c(c2)OCO3)c(C#N)cc2c(=O)n3cccc(C)c3nc21", "Potency": "inconclusive: 12.6 µM [inhibitor, partial curve]"},
      {"smiles": "Cc1cc(C)c(NC(=O)c2nc3ccccc3nc2N2CCCCC2)c(C)c1", "max response, negative = inhibition": "inactive: -4.14%"},
      {"smiles": "C[C@@H]1NC(=O)c2cc([N+](=O)[O-])cc(I)c2OCC[C@@H](C(N)=O)NC(=O)[C@H](CCC(=O)O)NC1=O", "Potency": "inconclusive: 25.1 µM [activator, single point]"},
      {"smiles": "COc1cc(/C=C(\\C#N)c2nc3ccccc3[nH]2)ccc1Oc1ccc([N+](=O)[O-])cn1", "Potency": "inconclusive: 31.6 µM [inhibitor, single point]"},
      {"smiles": "COC(=O)c1ccccc1NC(=O)c1ccc(COc2cccc3ccccc23)o1", "Potency": "active: 15.8 µM"},
      {"smiles": "O=C(CSc1nnc(-c2ccc(S(=O)(=O)N3CCCC3)cc2)o1)NCc1ccccc1", "Potency": "inconclusive: 39.8 µM [inhibitor, single point]"},
      {"smiles": "CN(C)S(=O)(=O)c1ccc(Cl)c(NC(=O)CSc2nc3c(cc2C#N)C(=O)CCC3)c1", "Potency": "inconclusive: 39.8 µM [inhibitor, single point]"},
      {"smiles": "CC(=O)c1ccc(S(=O)(=O)N2CCn3cccc3C2c2ccccc2F)cc1", "note": "(stereo not drawn)", "max response, negative = inhibition": "inactive: -4.31%"},
      {"smiles": "COc1cccc(NC(=O)CSc2nc3c([nH]c4ccccc43)c(=O)n2-c2cc(C)cc(C)c2)c1", "Potency": "active: 15.8 µM"},
      {"smiles": "Cc1cccc(C)c1OCc1nc2c3cnn(-c4ccccc4F)c3ncn2n1", "max response, negative = inhibition": "inactive: 7.16%"},
      {"smiles": "CC(C)(C)c1ccc(OCc2nc3ccccc3n2CCOc2ccccc2)cc1", "Potency": "inconclusive: 25.1 µM [inhibitor, single point]"},
      {"smiles": "Cc1nn(-c2nnc(C)c(=O)[nH]2)c(C)c1SCC(=O)Nc1ccc(C(C)C)cc1", "Potency": "inconclusive: 39.8 µM [activator, single point]"},
      {"smiles": "Cc1ccc(NC(=S)NC(=O)/C=C/c2ccc(Cl)cc2)cc1", "Potency": "active: 10 µM"},
      {"smiles": "Nc1nc(Cl)cc(Sc2ccc3ccccc3c2)n1", "Potency": "inconclusive: 39.8 µM [inhibitor, single point]"},
      {"smiles": "COc1ccc(OC)c(S(=O)(=O)Nc2ccc(OCC(=O)O)cc2)c1", "Potency": "inconclusive: 39.8 µM [inhibitor, single point]"},
      {"smiles": "Cc1ccc(-n2c(=O)c3c4c(sc3n(Cc3cc(=O)n5cc(Cl)ccc5n3)c2=O)CCC4)cc1C", "max response, negative = inhibition": "inactive: 0.0469%"},
      {"smiles": "CCOC(=O)c1ccccc1NC(=O)CN(c1cccc(C)c1C)S(=O)(=O)c1ccccc1", "max response, negative = inhibition": "inactive: 1.15%"},
      {"smiles": "COc1ccc(C2CC(c3ccc(Cl)cc3Cl)Nc3nc(N)nn32)cc1", "note": "(stereo not drawn)", "Potency": "inconclusive: 31.6 µM [activator, single point]"},
      {"smiles": "CCOc1ccc(C(=O)NC2CCN(S(C)(=O)=O)CC2)cc1", "max response, negative = inhibition": "inactive: 4.05%"},
      {"smiles": "N#Cc1ccc(-c2csc(NNC(=O)c3ccccc3)n2)cc1", "Potency": "inconclusive: 25.1 µM [inhibitor, single point]"},
      {"smiles": "CCOc1ccc2oc(=O)cc(CN3CCN(C(=O)c4ccc(OC)c(OC)c4)CC3)c2c1", "Potency": "inconclusive: 31.6 µM [activator, single point]"},
      {"smiles": "COCCn1nnnc1C(c1cc2cc(C)cc(C)c2[nH]c1=O)N1CCN(c2ccccc2F)CC1", "note": "(stereo not drawn)", "Potency": "inconclusive: 39.8 µM [activator, single point]"},
      {"smiles": "Cc1c(C)n(Cc2ccc(F)cc2)c2ccc(C(=O)N3CCN(c4ccc(F)cc4)CC3)cc12", "Potency": "inconclusive: 25.1 µM [inhibitor, single point]"},
      {"smiles": "Cc1nc2cc(C(F)(F)F)ccc2n1C1CCN(Cc2nnnn2Cc2cccs2)CC1", "Potency": "inconclusive: 25.1 µM [activator, partial curve]"},
      {"smiles": "Cc1cc(C)n2c(SCc3ccc(Cl)cc3Cl)nnc2n1", "Potency": "inconclusive: 39.8 µM [activator, single point]"},
      {"smiles": "CCOc1cc(C=C(C(=O)OC)C(=O)OC)ccc1OCc1ccc([N+](=O)[O-])cc1", "Potency": "inconclusive: 39.8 µM [activator, single point]"},
      {"smiles": "Cc1ccc2c(C)nc(SC(C(=O)c3ccccc3)c3ccccc3)nc2c1", "note": "(stereo not drawn)", "Potency": "inconclusive: 31.6 µM [inhibitor, single point]"},
      {"smiles": "CCOc1ccc2nc(N3CCCC(C(=O)NCCc4ccc(OCC)c(OCC)c4)C3)sc2c1", "note": "(stereo not drawn)", "max response, negative = inhibition": "inactive: 21.9%"},
      {"smiles": "CN1CCN(c2ncc3nc(-c4ccccc4)c(=O)n(CCc4ccccc4)c3n2)CC1", "Potency": "inconclusive: 2.51 µM [activator, full curve]"},
      {"smiles": "CN(CCNC(=O)c1cc2c(=O)n(C)c3ccccc3c2n1C)Cc1ccccc1", "Potency": "inconclusive: 25.1 µM [inhibitor, single point]"},
      {"smiles": "COc1ccc(OCc2ccc(-c3nc(C#N)c(NC(C)c4ccccc4)o3)o2)cc1", "note": "(stereo not drawn)", "max response, negative = inhibition": "inactive: -22.8%"},
      {"smiles": "CC(c1ccco1)N(C(=O)c1ccccc1NS(=O)(=O)c1ccc(Cl)c([N+](=O)[O-])c1)c1ccccn1", "note": "(stereo not drawn)", "Potency": "inconclusive: 39.8 µM [inhibitor, single point]"},
      {"smiles": "O=c1[nH]c(=S)n(Cc2ccco2)c(O)c1C=NCc1cccs1", "Potency": "inconclusive: 31.6 µM [inhibitor, single point]"},
      {"smiles": "COC(=O)C/C=C/[C@@H](C)[C@H](NC(=O)OCC(Cl)(Cl)Cl)c1ccc2ccccc2c1", "max response, negative = inhibition": "inactive: -4.42%"},
      {"smiles": "O=C(CSc1nc2ccccc2[nH]1)Nc1nc(-c2cccc(Br)c2)cs1", "Potency": "inconclusive: 25.1 µM [inhibitor, single point]"},
      {"smiles": "Cc1ccc2c(c1)C(c1ccc(F)cc1)N(C(=O)c1ccc(S(=O)(=O)N3CCCCC3)cc1)CC(=O)N2", "note": "(stereo not drawn)", "max response, negative = inhibition": "inactive: -6%"},
      {"smiles": "CCC(=O)N1CCc2cc(Br)cc(S(=O)(=O)CCC(=O)N3CCN(c4cccc(C)c4)C(C)C3)c21", "note": "(stereo not drawn)", "Potency": "inconclusive: 31.6 µM [activator, single point]"},
      {"smiles": "CSc1nnc(-c2cc3c(-c4ccccc4)nn(C)c3s2)n1C", "Potency": "inconclusive: 39.8 µM [activator, single point]"},
      {"smiles": "Brc1ccc(-c2nnc(-c3ccccc3)o2)o1", "Potency": "inconclusive: 25.1 µM [activator, partial curve]"},
      {"smiles": "O=C(COc1ccc2ccccc2c1)Nc1ccc2c3c(cccc13)CC2", "Potency": "inconclusive: 39.8 µM [inhibitor, single point]"},
      {"smiles": "Cc1cc(C)c2sc(NNC(=O)C3COc4ccccc4O3)nc2c1", "note": "(stereo not drawn)", "Potency": "inconclusive: 39.8 µM [inhibitor, single point]"},
      {"smiles": "CCCCn1cnc2cc(NCc3ccccc3Cl)ccc21", "max response, negative = inhibition": "inactive: -18.2%"},
      {"smiles": "Cc1cccc(/C=C/c2onc(C)c2S(=O)(=O)N2CCC(C(=O)N3CCCCC3)CC2)c1", "Potency": "inconclusive: 20 µM [activator, partial curve]"},
      {"smiles": "CCCSCCCNC(=O)C1CCN(c2nc3ccccc3nc2C(F)(F)F)CC1", "max response, negative = inhibition": "inactive: -0.581%"}
    ]}
  ]
}
